# The BET-seq Pho4 binding data (Le et al. 2018)
# This is one part of the list. Values were computed here from the reads of four pooled replicates and scatter widely.
# Molecular target: T1, Pho4 (S. cerevisiae) (UniProt P07270)
# T1 sequence: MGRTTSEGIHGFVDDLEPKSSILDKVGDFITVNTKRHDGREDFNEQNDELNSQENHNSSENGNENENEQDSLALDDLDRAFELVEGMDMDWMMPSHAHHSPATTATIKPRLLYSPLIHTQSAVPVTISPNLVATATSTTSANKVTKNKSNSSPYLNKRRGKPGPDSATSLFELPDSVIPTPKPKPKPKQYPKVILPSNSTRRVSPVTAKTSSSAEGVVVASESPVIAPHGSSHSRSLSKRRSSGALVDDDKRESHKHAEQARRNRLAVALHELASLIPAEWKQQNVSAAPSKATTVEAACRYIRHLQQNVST
# Assay: relative binding free energy (BET-seq); higher = weaker binding
# Settings: reference: library average
row,Sequence,relative binding free energy [kcal/mol]
1,GTTTGCACGTGTGTTT,0.15
2,TTGAGCACGTGATGCG,0
3,CCAGGCACGTGAAGGG,0.21
4,GGGCGCACGTGTGCAG,-0.17
5,TTAAACACGTGGATTG,-0.06
6,TTTGGCACGTGATAAG,0
7,GTTCACACGTGGGCAG,0.1
8,TATTGCACGTGATTGC,-0.06
9,TTTAGCACGTGTCAGA,-0.05
10,AGTGCCACGTGGTTTG,-0.2
11,TAGGTCACGTGGGCGA,0
12,ATTGGCACGTGAGGAG,0.1
13,TGGGGCACGTGTCACG,-0.19
14,TCTAACACGTGGTGTA,0
15,TAAGTCACGTGTATAT,0.14
16,TGGTGCACGTGTGTTA,0.05
17,TATGGCACGTGTTGCG,-0.06
18,TGCATCACGTGGATGG,0.09
19,AGTATCACGTGGGACG,-0.05
20,GTTTTCACGTGCACGT,0.23
21,GTAAGCACGTGAGTTA,0.2
22,AGGTCCACGTGAGGGG,0.24
23,GTAGTCACGTGGCTTA,0.03

row,Sequence,relative binding free energy [kcal/mol]
1,AGATGCACGTGGTAGG,-0.01
2,AAAGGCACGTGGGGGC,-0.21
3,CTAGGCACGTGGGTTT,-0.25
4,TTGGGCACGTGCCGGG,-0.14
5,TTGGGCACGTGCGTAG,-0.1
6,CGAGTCACGTGTGAAG,0.15
7,GGTGACACGTGGGGTC,-0.02
8,GGTGGCACGTGAAGAC,0.27
9,ACAAGCACGTGTTTTT,-0.01
10,AATTGCACGTGGGTGT,-0.2
11,ATTGGCACGTGCGGGT,-0.28
12,AAGGTCACGTGCTGTA,0.07
13,CGTGACACGTGCGTTT,0.02
14,TACGGCACGTGTGTGA,-0.08
15,TGTAACACGTGATTCT,0.28
16,GTTTACACGTGGGTTC,0.01
17,ATTGTCACGTGGTATT,0.02
18,AGTGTCACGTGCTAGG,-0.05
19,GGGGACACGTGGGTCG,-0.04
20,TTGAGCACGTGCTTTT,-0.26
21,GTCATCACGTGGTGTG,0.05
22,TTACTCACGTGGGAGT,0.09
23,AGATGCACGTGTATTT,0.12

row,Sequence,relative binding free energy [kcal/mol]
1,AGTTACACGTGGTCAG,-0.05
2,ATAGTCACGTGTAAGA,0.13
3,GATGACACGTGGTCGG,-0.09
4,GTTTGCACGTGAAGCG,0.33
5,TATGGCACGTGAGTTA,0.12
6,ATAATCACGTGAGTGC,0.37
7,TGTGTCACGTGGCACT,0.02
8,GGTAACACGTGTTCGA,0.17
9,ACGTTCACGTGAGATG,0.4
10,ACGTACACGTGAGTGG,0.35
11,CATCTCACGTGGGGCG,0.25
12,TCAGGCACGTGGTGCG,-0.12
13,TATGGCACGTGGTGGT,-0.12
14,GATACCACGTGTTGGG,0.11
15,CTGGGCACGTGGTGTA,-0.13
16,TGGTTCACGTGGTAGA,0.28
17,AAAGACACGTGATTGG,0.2
18,GGCTCCACGTGTTTGG,0.2
19,GTATGCACGTGGTGAA,-0.05
20,TGTGGCACGTGTAGGA,-0.05
21,GGGGGCACGTGTCGAT,-0.09
22,GATGCCACGTGTGGAG,0.16
23,GAAGTCACGTGTGATG,0.28

row,Sequence,relative binding free energy [kcal/mol]
1,GTTGGCACGTGTTCCG,-0.04
2,GTAAGCACGTGGCATG,-0.16
3,TAGATCACGTGAAGTG,0.27
4,GCTCGCACGTGAGGTT,0.37
5,TGGATCACGTGGAATA,0.18
6,ATAGTCACGTGGATGA,-0.01
7,TATAGCACGTGTGAAA,0.04
8,GGGTGCACGTGACTTT,0.2
9,TGTTGCACGTGCGCTT,-0.01
10,TAGTTCACGTGTGAAT,0.23
11,CGTTGCACGTGGGCTT,-0.15
12,CTATTCACGTGGTTTG,0.19
13,TTTAGCACGTGCATTA,-0.07
14,TAATGCACGTGAGCGG,0.26
15,AGGGGCACGTGTGACG,-0.2
16,TATTGCACGTGAAGCG,0.13
17,GTTGGCACGTGGAGAC,0.05
18,GTGTTCACGTGATTTC,0.4
19,ATTTTCACGTGCGGCT,0.17
20,TGTTGCACGTGCTGAT,-0.01
21,TCGGGCACGTGTGATG,-0.11
22,GTATGCACGTGTGAAA,0.2
23,AGGGACACGTGGCCGG,-0.02

row,Sequence,relative binding free energy [kcal/mol]
1,TGTGGCACGTGGGGGA,-0.21
2,AAGGTCACGTGTAAAT,0.39
3,GCGGGCACGTGTCAGG,-0.06
4,AAGCGCACGTGTGGGA,-0.07
5,AGAGTCACGTGGATGA,0.19
6,TTAGTCACGTGTCGCT,0.05
7,TTCGTCACGTGCTTGG,-0.03
8,GACGGCACGTGCGTGG,-0.11
9,ATTCACACGTGATGTG,0.21
10,TTTGTCACGTGCATAG,0.05
11,GGGATCACGTGTGTGA,0.26
12,GGTCACACGTGATGGT,0.31
13,TTAGACACGTGGGGTA,-0.19
14,GGAGCCACGTGTTTTT,0.04
15,AGTTGCACGTGTAGGG,0.1
16,CGAGTCACGTGTGTGA,0.04
17,GGTATCACGTGGGCTT,0.05
18,TAAGTCACGTGTAAGA,0.22
19,TAACGCACGTGGGATG,-0.22
20,GTTGGCACGTGTGGTC,0.08
21,CATTACACGTGTTGGT,0.03
22,GTGTGCACGTGAAGGC,0.17
23,AGAATCACGTGGTTGG,0.13
